Source: PMC12136788
The list shows a part of the results.

B1: chr15:43456694:43456846:-|CDS|ENSG00000067369|unk|total|mutant (ssRNA)
RNA: GGGAGUUCUACAGUCCGACGAUCAGACACCAGGGAUGACAUCCGUAUUUCCGCCACUGGUUGCAAGGGCAGAGAAGAAACGGCCGCAGAAGAUGUUUGUAUUGAUCUCACUUGUGAUUCGGGGAGUCAGGCAGUUCCGUCACCCAACAGAGGAUUGAGCAUCA
B2: ENSG00000070961:be:win_4401|3pUTR|ENSG00000070961|bound_else_gene|NA|bound_elsewhere_windowed (ssRNA)
RNA: GGGAGUUCUACAGUCCGACGAUCGUUAUGACAUCUGUCCUAAUUAGUUUCUUAAAUACAUUUACUACUUAAUGGUUUUGAAGCAACUGUUUAAUUUUUAAAAUUUUUGAAAACUUGCUAAUAACCUUUUGUUCAGAAUUUAGUCAACAGAGGAUUGAGCAUCA
B3: chr1:45741042:45741143:-|CDS|ENSG00000197429|msi1|total|mutant (ssRNA)
RNA: GGGAGUUCUACAGUCCGACGAUCUGCCAUGAUCUCUUGGAAUUCUCAGAAAACUACAUUCAUGUCCAUUUCUUGGAGGUUCACCGUGGAGAAGAGUUCCUGGCACUUACGAAAGAUCAGCUGAUCAAAAUUUUGCGAAGUGAACAACAGAGGAUUGAGCAUCA
B4: chr7:137227872:137228000:-|3pUTR|ENSG00000105894|msi1_unk|FALSE|overlapping (ssRNA)
RNA: GGGAGUUCUACAGUCCGACGAUCGGAACAUAAAAAGGACAUCAGCAAACAGGAUCAGUUAACUAUUGCAUUUAUAUGUACCGUAGGCUUUGUAUUCAAAAAUUAUCUAUAGCUAAGUACACAAUAAGCAAAAACAAAAAGAAACAACAGAGGAUUGAGCAUCA
B5: ENSG00000106080:stop:overlap|stop_codon|ENSG00000106080|stop_codon|NA|stop_codon (ssRNA)
RNA: GGGAGUUCUACAGUCCGACGAUCAUGAAGACAAAGAUGGGUUUAUAUCUGCCAGAGAAUUUACAUAUAAACACGAUGAGUUAUAGAGAUACAUCUACCCUUUUAAUAUAGCACUCAUCUUUCAAGAGAGGGCAGUCAUCUUUACAACAGAGGAUUGAGCAUCA
B6: chr20:3868059:3868160:+|3pUTR|ENSG00000088888|unk|total|mutant (ssRNA)
RNA: GGGAGUUCUACAGUCCGACGAUCUCAGCCUCCAGGGAUCUACACCCUGCCUUGGCUGCUACAGCUUUUUCACUCCACUGCCCCCGGGGAGUUCAGCAACCUAAUGAUCUCUAUCUCUGAACAUCUCUUCAUCCCAUGCUCCAACAACAGAGGAUUGAGCAUCA
B7: chr9:37862824:37862925:+|3pUTR|ENSG00000122741|unk|total|mutant (ssRNA)
RNA: GGGAGUUCUACAGUCCGACGAUCUAUGCACCCGCCUUGCCCUCUCCGGUUGCAUUCUCUUCCGGCCACUGGUUCUCAAACAUCCGGGUGCACUGUAACCAUUACAGAGCUUGUGAAAAGUGCAGAAACCUGAGCCUCACCUUACAACAGAGGAUUGAGCAUCA
B8: chr22:21921976:21922077:-|3pUTR|ENSG00000100034|msi1|FALSE|unique (ssRNA)
RNA: GGGAGUUCUACAGUCCGACGAUCGACUGCAGUGGGCUCGGAUAGGCCCAUUGAGGUUUUUAGAAAAGCAGGAUUUGUUUUGUUAGGGAGGCAUGAUUUUGGUGAGAUCUUUCUGGAAGAGUUUUCCGCCUCUUUGUGAUGCUGCAACAGAGGAUUGAGCAUCA
B9: ENSG00000138759:stop:overlap|stop_codon|ENSG00000138759|stop_codon|NA|stop_codon (ssRNA)
RNA: GGGAGUUCUACAGUCCGACGAUCAAGUUGGAAAGGUUGAGCCCUUGACCACAAUAUUUCACACCAUUAGAGAGCUUUCUUUAUAGGGACUCAAAAGCAAAGAAGAUUGGAUUUGACCUUCAAAAUUGAAGGUCGUUCUUAAAACAACAGAGGAUUGAGCAUCA
B10: chr15:75505753:75505856:-|CDS|ENSG00000169410|unk|FALSE|unique (ssRNA)
RNA: GGGAGUUCUACAGUCCGACGAUCGGUGAACGGCCACCCAGAUCCCUUCGAUGAGAUCAUCCUGUUCUCCCUCCCUCCUGCCUUAGACUGGGACUCAGUACAUGUUCCAGGUCCCCAUGCUAUGACCAUCCAAGAGUUGGUGGACAACAGAGGAUUGAGCAUCA
B11: chr3:73066602:73066703:+|3pUTR|ENSG00000163605|unk|total|mutant (ssRNA)
RNA: GGGAGUUCUACAGUCCGACGAUCACUAUUUUGCCGAAUGAAUGUUUAUGAAGCUGAUAUGAGACCAUCUCAGAAGAACCAAGCCGGUUCCUUGACCUUUUGCUUGCUUUUCUGAACAUUGUGAAUAUUACACAUGUCUUUCUACAACAGAGGAUUGAGCAUCA
B12: chr10:103289619:103289731:+|3pUTR|ENSG00000148798|unk|total|mutant (ssRNA)
RNA: GGGAGUUCUACAGUCCGACGAUCAUGAGUGGAAAAAGCCAAGGUGUCAUUUAUGUGUCAGUUCAUUUGUGGUGAUACCGAAUCCGCUUUUUCAUCCCCUUACCCUCCGAAUCCACGUAUUCCCCUUCCCACCCGCCCCGGUCACAACAGAGGAUUGAGCAUCA
B13: ENSG00000106305:stop:overlap|stop_codon|ENSG00000106305|stop_codon|NA|stop_codon (ssRNA)
RNA: GGGAGUUCUACAGUCCGACGAUCACGUGCACGGCAGGAGCUACGGCCCAGCGCCGGGCGCUGGCCACGUGCAGCCUCUCCAGUAGCUGGGAUUACAGGUGCCCCCCACCAAGCCCAGCUAAUUUUUGUGUUUCAGUAGAAAUGCAACAGAGGAUUGAGCAUCA
B14: chr8:144876950:144881514:-|three_prime_utr|ENSG00000196150|control|control|control (ssRNA)
RNA: GGGAGUUCUACAGUCCGACGAUCGAAACUGCAUGUGGAACCACAAGCAGCCUUCAGCCCAAGAGAAGUCUCUGUUAACUCUAUAGGAAGCUUUUCUUUGGCGAUUCAGUGUCACAAAAUAACUCCAGAAAGAAGCACUUAGCGCAACAGAGGAUUGAGCAUCA

Target: MSI1 full-length (mouse, UniProt Q61474 1-362)
Assay: nsRBNS (natural sequence RNA bind-n-seq); RBNS binding buffer (assumed for nsRBNS): 25 mM Tris pH 7.5, 150 mM KCl, 3 mM MgCl2, 0.01% Triton X-100, 500 ug/ml BSA, 20 U/ml SUPERase-In, 4 C; UNK is unkempt and MSI1 is Musashi-1; names of the RNAs are library labels; protein concentration not given here; high values mean tight binding

Sequence of UniProt Q61474 (Q61474 whole entry): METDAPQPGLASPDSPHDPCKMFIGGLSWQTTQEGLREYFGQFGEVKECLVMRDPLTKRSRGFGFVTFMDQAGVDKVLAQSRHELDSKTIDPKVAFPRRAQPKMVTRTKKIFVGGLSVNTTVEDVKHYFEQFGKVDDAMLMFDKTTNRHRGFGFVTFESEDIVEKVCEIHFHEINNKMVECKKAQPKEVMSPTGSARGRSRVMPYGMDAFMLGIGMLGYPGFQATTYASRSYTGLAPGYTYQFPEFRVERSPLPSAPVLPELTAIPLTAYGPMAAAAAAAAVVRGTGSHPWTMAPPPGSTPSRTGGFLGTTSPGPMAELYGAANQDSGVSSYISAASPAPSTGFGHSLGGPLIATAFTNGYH

| Binder | binding signal |
| --- | --- |
| B1 | 0.515 enrichment R |
| B2 | 3.8 enrichment R |
| B3 | 0.181 enrichment R |
| B4 | 2.29 enrichment R |
| B5 | 1.32 enrichment R |
| B6 | 0.647 enrichment R |
| B7 | 0.381 enrichment R |
| B8 | 0.64 enrichment R |
| B9 | 0.245 enrichment R |
| B10 | 0.726 enrichment R |
| B11 | 0.221 enrichment R |
| B12 | 0.524 enrichment R |
| B13 | 0.334 enrichment R |
| B14 | 0.539 enrichment R |
